Measured values from PubChem BioAssay AID504845 (National Center for Advancing Translational Sciences (NCATS), 2011).
Out of some 390,000 compounds screened, about 150 (0.038%) were called active. Inconclusive means that the source gave no clear call. Such entries were picked first, then a sample of the others. Calls follow the shape of the dose curve; as a rule, active = well fitted inhibition curve with a large enough effect; inconclusive = small, poorly fitted or top-dose-only effect; inactive = no such curve, though single readings can be large or run the other way. Where the call is inconclusive, the potency comes from a doubtful curve fit.

molecular target: Regulator of G-protein signaling 4 (Homo sapiens) (UniProt P49798); experiment: Inhibitors of Regulator of G Protein Signaling (RGS) 4: qHTS; conditions: Transcreener GDP fluorescence polarization, RGS4-accelerated GTP hydrolysis; series mostly up to 114 µM; activity change, negative = inhibition: at the top concentration; also: nearly all actives have a fitted effect of over 75% in size
From the text: G-protein-coupled receptors (GPCRs) are well-established targets for drug discovery and development. Members of the "regulator of G-protein signaling" (RGS)-protein superfamily have recently emerged as critical modulators of specific GPCR signaling pathways. […] Combining specific RGS domain inhibitors with existing GPCR agonists should potentiate cellular responses and could also increase the specificity of action of existing therapeutics. Small molecule modulators of RGS domain activity should also have clinical utility in inhibiting or potentiating the actions of endogenous GPCR agonists. In particular, the diversity of RGS proteins with highly localized and dynamically regulated distributions in the human brain makes this family of proteins attractive targets for pharmacotherapy of central nervous system (CNS) disorders such as Parkinson's disease, schizophrenia, and anxiety.
This assay was used to screen the NIH Molecular Libraries Small Molecule Repository (MLSMR) in order to identify a small molecule that inhibits RGS4.
NIH Chemical Genomics Center [NCGC]
NIH Molecular Libraries Probe Centers Network [MLPCN]
Assay Submitter (PI): David Siderovski, University of North Carolina Chapel Hill (School of Medicine)
Two microliters of 500nM (2x working concentration) is dispensed into black medium-binding solid-bottom Kalypsys plates. Then with the Kalypsys pintool 23nl of control and compounds are transferred; the control compound is […] CCG-4986 (working concentration). After a 10 minute incubation at room temperature 2ul of antibody is added with the Kalypsys dispenser; (-)RGS4/Transcreener GDP solution in columns 3 and 4 which consisted of 10nM (2x working concentration) Alexa633, 20uM GTP, and 20 ug/ml GDP antibody and (+)RGS4/Transcreener GDP solution in columns 1,2, and 5 to 48 which consists of 900nM RGS4 (2x working concentration), 10nM Alexa633, 20 ug/ml GDP antibody. The plate is centrifuged at 1000 RPM for 15 seconds to remove any possible bubbles and then incubated for 5 minutes at ambient room temperature. An initial fluorescent polarization read (620 nm/688 nm) is performed on the Envision before the plate is incubated for 90 minutes at 30 deg C at a relative humidity of 80%. The plate is once more centrifuged at 1000 RPM for 15 seconds and another Envision fluorescent polarization (620 nm/688 nm) read is carried out.
% is scaled to controls: 0 for no effect and ±100 for the full control effect; potency is read from the fitted curve at half-maximal effect; tags tell the direction and shape of the fitted curve.

Chain of UniProt P49798 (P49798 whole entry, looked up, the tested form may be a part): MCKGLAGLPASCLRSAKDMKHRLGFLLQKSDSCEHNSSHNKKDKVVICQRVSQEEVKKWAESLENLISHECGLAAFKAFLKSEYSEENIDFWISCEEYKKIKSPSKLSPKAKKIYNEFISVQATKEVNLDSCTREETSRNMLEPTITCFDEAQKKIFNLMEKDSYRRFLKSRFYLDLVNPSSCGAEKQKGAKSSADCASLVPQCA

| Compound | Potency | activity change, negative = inhibition |
| --- | --- | --- |
| O=C1NC(=O)N(Cc2ccccc2Cl)C(=O)/C1=C/c1cccs1 | inconclusive: 20 µM [inhibitor, full curve, poor fit] | – |
| COc1ccccc1-n1c(O)c(/C=N/NC(=S)Nc2ccccc2)c(=O)[nH]c1=S | inconclusive: 44.7 µM [inhibitor, partial curve, poor fit] | – |
| CC(C)c1ccc(N2C(=O)NC(=O)/C(=C/C=C/c3ccco3)C2=O)cc1 | inconclusive: 31.6 µM [inhibitor, partial curve, poor fit] | – |
| Cn1c(O)c(C(c2ccncc2)c2c(O)n(C)c(=S)n(C)c2=O)c(=O)n(C)c1=S | inconclusive: 79.4 µM [inhibitor, single point] | – |
| Nc1ccc(CCN2CCN(c3cccc(C(F)(F)F)c3)CC2)cc1 | inconclusive: 37.6 µM [inhibitor, partial curve, poor fit] | – |
| COc1ccc(NC2=NC(C)(C)CS2)cc1 | inconclusive: 56.2 µM [inhibitor, partial curve, poor fit] | – |
| COc1ccc(N2C(=O)/C(=C/c3ccc(OC)c(OC)c3)C(=O)NC2=S)cc1 | inconclusive: 50.1 µM [inhibitor, partial curve, poor fit] | – |
| O=C(CN1C(=O)S/C(=C\C=C\c2ccccc2)C1=O)Nc1ccccc1C(=O)O | inconclusive: 50.1 µM [inhibitor, partial curve, poor fit] | – |
| O=C1NC(=O)N(c2cccc(Br)c2)C(=O)/C1=C/c1ccsc1 | inconclusive: 79.4 µM [inhibitor, partial curve, poor fit] | – |
| CCSc1cc(C2C(C#N)=C(N)Oc3n[nH]c(C)c32)c(C)o1 (stereo not drawn) | inconclusive: 35.5 µM [inhibitor, partial curve, poor fit] | – |
| CCC(C)N1C(=O)/C(=C\c2cc3c4c(c2)CCCN4CCC3)C(=O)NC1=S (stereo not drawn) | inconclusive: 79.4 µM [inhibitor, partial curve, poor fit] | – |
| Cc1cc2c(C(C)C)c(O)c(O)c(C=O)c2c(O)c1-c1c(C)cc2c(C(C)C)c(O)c(O)c(C=O)c2c1O | active: 4.22 µM | – |
| Brc1ccc2c(c1)C(OC1CN3CCC1CC3)c1ccccc1CS2 (stereo not drawn) | – | inactive: -46.5% |
| O=C1NC(=S)NC(=O)C1=Cc1ccc(Br)s1 | inconclusive: 50.1 µM [inhibitor, partial curve, poor fit] | – |
| C#CCN(C)[C@H](C)Cc1ccccc1 | inconclusive: 0.0844 µM [inhibitor, partial curve, poor fit] | – |
| C=CCN1C(=O)NC(=O)/C(=C/c2cc3c4c(c2)CCCN4CCC3)C1=O | inconclusive: 50.1 µM [inhibitor, partial curve, poor fit] | – |
| COC(=O)C1=C(C)NC(=S)NC1c1ccc(N(CCCl)CCCl)cc1Cl (stereo not drawn) | inconclusive: 44.7 µM [inhibitor, partial curve, poor fit] | – |
| Cc1cc(C=C2C(=O)N(C)C(=S)N(C)C2=O)c(C)n1-c1ccncc1 | inconclusive: 25.1 µM [inhibitor, full curve, poor fit] | – |
| O=P(c1ccccc1)(c1ccccc1)N(c1ccccc1)c1ccccc1 | inconclusive: 79.4 µM [inhibitor, partial curve, poor fit] | – |
| Cc1ccccc1C(=O)NNC(=S)NC(=O)COc1ccccc1 | inconclusive: 17.8 µM [inhibitor, full curve, poor fit] | – |

| Compound | Potency | activity change, negative = inhibition |
| --- | --- | --- |
| O=C(N/N=C1/CN2CCC1CC2)c1cc2ccccc2cc1O | inconclusive: 100 µM [inhibitor, single point] | – |
| CCCCCn1c(Sc2ccccc2)nc2c1c(=O)[nH]c(=O)n2C | inconclusive: 50.1 µM [inhibitor, partial curve, poor fit] | – |
| COc1ccc(CN2C(=O)NC(=O)/C(=C/c3ccoc3)C2=O)cc1 | inconclusive: 50.1 µM [inhibitor, partial curve, poor fit] | – |
| Oc1ccc2ccccc2c1CN1CC=C(c2ccccc2)CC1 | – | inactive: -12.8% |
| COc1ccc(N2C(=O)CS(=O)C(c3ccccc3)C2=O)cc1 (stereo not drawn) | inconclusive: 50.1 µM [inhibitor, partial curve, poor fit] | – |
| O=C1NC(=O)N(c2ccc(F)cc2)C(=O)/C1=C/c1ccc(N2CCOCC2)cc1 | inconclusive: 44.7 µM [inhibitor, partial curve, poor fit] | – |
| O=[N+]([O-])NC1=NCCN1Cc1ccc(Cl)nc1 | inconclusive: 50.1 µM [inhibitor, partial curve, poor fit] | – |
| O=C1NC(=O)C(=Cc2cc3c(cc2[N+](=O)[O-])OCO3)C(=O)N1 | inconclusive: 31.6 µM [inhibitor, full curve, poor fit] | – |
| O=C1NC(=O)C(=Cc2ccc(OCC(=O)N3CCOCC3)cc2)C(=O)N1 | inconclusive: 100 µM [inhibitor, partial curve, poor fit] | – |
| O=c1cc(Nc2cccc(Br)c2)[nH]c(=O)[nH]1 | inconclusive: 79.4 µM [inhibitor, single point] | – |
| Cc1ccc(O)c(CN2CCN(c3ccccc3)CC2)c1 | – | inactive: 6.15% |
| CCC(C)N=Cc1c(O)n(-c2ccccc2)c(=O)[nH]c1=O (stereo not drawn) | inconclusive: 50.1 µM [inhibitor, partial curve, poor fit] | – |
| O=S1(=O)N(CCN2CC=C(c3c[nH]c4cc(F)ccc34)CC2)c2cccc3c2N1CCC3 | inconclusive: 37.6 µM [inhibitor, single point] | – |
| COc1ccccc1NS(=O)(=O)c1cc(NC(=O)c2ccc(Cl)nc2)ccc1N1CCCC1 | inconclusive: 50.1 µM [inhibitor, partial curve, poor fit] | – |
| CC(=O)n1cc(C=C2C(=O)NC(=O)NC2=O)c2ccccc21 | inconclusive: 50.1 µM [inhibitor, partial curve, poor fit] | – |
| CCC(C)n1c(O)c(/C=N/Nc2ccccc2)c(=O)[nH]c1=S (stereo not drawn) | inconclusive: 100 µM [inhibitor, partial curve, poor fit] | – |
| CCOC(=O)c1ccc(-n2c(N)c(C(=O)NCC3CCCO3)sc2=S)cc1 (stereo not drawn) | inconclusive: 79.4 µM [inhibitor, partial curve, poor fit] | – |
| O=C(CCCN1CCC2(CC1)C(=O)N(Cc1cccc(F)c1)CN2c1ccccc1)c1ccc(F)cc1 | – | inactive: -193% [at 56.9 µM] |
| O=C1NC(=O)N(c2ccc(F)cc2)C(=O)/C1=C/c1ccc2c(c1)CCCN2Cc1ccccc1 | inconclusive: 28.2 µM [inhibitor, full curve, poor fit] | – |
| O=C(Cn1nc(Cc2cccnc2)c2ccccc2c1=O)N1CCC2(CC1)OCCO2 | – | inactive: 18.9% |

| Compound | Potency | activity change, negative = inhibition |
| --- | --- | --- |
| O=C1NC(=O)N(c2ccc(Br)cc2)C(=O)/C1=C/c1ccsc1 | inconclusive: 50.1 µM [inhibitor, partial curve, poor fit] | – |
| CCOc1ccc(N2C(=O)/C(=C\c3cccs3)C(=O)NC2=S)cc1 | inconclusive: 31.6 µM [inhibitor, full curve, poor fit] | – |
| NC1C=CC=C(C(=O)O)C1 (stereo not drawn) | inconclusive: 0.946 µM [inhibitor, partial curve, poor fit] | – |
| O=C1CC(=O)N(Cc2ccccc2)C(=O)N1Cc1ccccc1 | inconclusive: 70.8 µM [inhibitor, partial curve, poor fit] | – |
| O=c1[nH]c(=S)n(-c2ccc(Cl)cc2)c(O)c1C=Nc1ccc(N2CCOCC2)cc1 | inconclusive: 28.2 µM [inhibitor, full curve, poor fit] | – |
| C=CCN1C(=O)/C(=C/c2cccs2)C(=O)NC1=S | inconclusive: 20 µM [inhibitor, full curve, poor fit] | – |
| CC(C)(C)c1ccc(OC(=O)N2CCCCC2)cc1 | inconclusive: 35.5 µM [inhibitor, partial curve, poor fit] | – |
| COC(=O)C1=C(c2cccc(OCc3ccccc3)c2)C[C@@H]2CC[C@H]1N2C(=O)NCc1ccc(OC)cc1 | – | inactive: 4.99% |
| COc1cc(/C=C2\C(=O)NC(=O)N(CCc3ccc(F)cc3)C2=O)ccc1O | inconclusive: 79.4 µM [inhibitor, partial curve, poor fit] | – |
| CCOC(=O)c1c(-n2c(C)cc(C=C3C(=O)NC(=O)NC3=O)c2C)sc2c1CCCC2 | inconclusive: 89.1 µM [inhibitor, single point] | – |
| Cc1cccc(N2C(=O)NC(=O)/C(=C\c3cc(C)n(-c4sc5c(c4C#N)CCCC5)c3C)C2=O)c1C | inconclusive: 31.6 µM [inhibitor, full curve, poor fit] | – |
| CC(C)(C)N1CC(C(=O)c2ccccc2)C1c1ccccc1 (stereo not drawn) | inconclusive: 89.1 µM [inhibitor, single point] | – |
| CC(C)CNC(=O)c1c(N)n(Cc2ccco2)c2nc3ccccc3nc12 | – | inactive: -50.7% |
| CCOC(=O)c1sc(/N=C/c2c(O)n(-c3ccccc3)c(=O)[nH]c2=O)c(C#N)c1C | inconclusive: 89.1 µM [inhibitor, single point] | – |
| CCN(CC)c1ccc(N=Cc2c(O)[nH]c(=O)[nH]c2=O)cc1 | inconclusive: 44.7 µM [inhibitor, partial curve, poor fit] | – |
| COc1ccc(NC(=O)CSc2nc(-c3cccs3)cc(C(F)(F)F)n2)cc1Cl | inconclusive: 20 µM [inhibitor, full curve, poor fit] | – |
| Cc1ccc(/C=C2\C(=O)NC(=O)N(CC3CCCO3)C2=O)s1 (stereo not drawn) | inconclusive: 70.8 µM [inhibitor, single point] | – |
| CC(C)NCC(O)c1ccc(N)c(C#N)c1 (stereo not drawn) | inconclusive: 23.8 µM [inhibitor, partial curve, poor fit] | – |
